According to the supplement of paper PMC10126150:
Values marked as one replicate rest on one cluster of the flow cell; about a third of the high ones do not repeat.

Each sequence was assayed on ATP (assay: switch fluorescence ratio, 500 uM ATP over buffer (Cy3 cluster intensity, sum of 5 cycles each) (fold (ratio)); higher = stronger signal-on switching upon ATP binding; sequences stand for … in TCGTCGGCAGCGTCAGATGTGTATAAGAGACAGTTTTTTTTTTTTTTTTTTTTTTTTT…TC). Conditions: aptamer strand: ATP DNA aptamer (quencher-CACCTGGGGGAGTATTGCGGAGGAAGG + anchor), 100 nM annealed; ATP concentration: 500 uM; one replicate.
How it was run: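 Imaging in selection buffer was followed by imaging after 15 min with 500 uM ATP at 22 °C, for Cy3-labelled switching-strand clusters annealed to 100 nM quencher-labelled ATP aptamer on a modified Illumina MiSeq flow-cell. Five of these buffer/ATP cycles ran, separated by NaOH stripping and re-annealing. The fluorescence ratio per cluster is summed target-cycle over summed buffer-cycle Cy3 intensity, averaged per switch-domain sequence; clusters outside 100-1000 RFU were removed.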
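Note: ATP exposure 15 min at 22 °C before imaging.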

Row | Sequence | switch fluorescence ratio
1 | CGGGGACGTT | 1.01
2 | CGGGGAGCGG | 0.93
3 | CGGGGCAGTG | 0.982
4 | CGGGGCCGAT | 1.02
5 | CGGGGCGCAG | 0.957
6 | CGGGGGCA | 1.01
7 | CGGGGTAACG | 0.954
8 | CGGGGTCAGA | 0.972
9 | CGGGGTGAC | 0.983
10 | CGGGGTTATG | 0.94
11 | CGGGTACAC | 0.977
12 | CGGGTACGGC | 0.997
13 | CGGGTAGCGA | 0.99
14 | CGGGTAGCTC | 1.02
15 | CGGGTATAT | 1.01
16 | CGGGTCCAAT | 0.963
17 | CGGGTCTGGA | 1.02
18 | CGGGTGCGCC | 1.04
19 | CGGGTGCTCG | 0.954
20 | CGGGTGGCT | 1
21 | CGGGTGTGCT | 0.964
22 | CGGGTTAGGC | 0.983
23 | CGGGTTGAGT | 0.989
24 | CGGGTTGCAC | 0.984
25 | CGGGTTGG | 0.964
26 | CGGGTTTAGT | 1

Row | Sequence | switch fluorescence ratio
27 | CGGGTTTCTT | 0.99
28 | CGGGTTTTCA | 1.01
29 | CGGTAAAACG | 0.92
30 | CGGTAAAAGT | 0.966
31 | CGGTAAGGGT | 1.03
32 | CGGTAGCTA | 1.15
33 | CGGTATCCAT | 0.961
34 | CGGTATGTTA | 0.998
35 | CGGTATTTCT | 0.986
36 | CGGTCAATGT | 1.02
37 | CGGTCACATT | 1.01
38 | CGGTCAGGT | 0.94
39 | CGGTCAGTCT | 0.987
40 | CGGTCCCAAG | 1.01
41 | CGGTCTAGGT | 0.983
42 | CGGTCTTGGT | 1.01
43 | CGGTGCAATT | 1.07
44 | CGGTGCGTAG | 1.03
45 | CGGTGCGTCA | 0.989
46 | CGGTGCTTGG | 0.972
47 | CGGTGGCGAG | 0.988
48 | CGGTGGCTAT | 1.01
49 | CGGTGGGCTT | 1.01
50 | CGGTGGTGAC | 0.973
51 | CGGTGTATGA | 0.975
52 | CGGTGTTCGG | 0.996

Row | Sequence | switch fluorescence ratio
53 | CGGTGTTCTA | 0.995
54 | CGGTTAAAAG | 0.983
55 | CGGTTAAGTT | 1.01
56 | CGGTTACATA | 1.1
57 | CGGTTCTAT | 0.997
58 | CGGTTGAAAC | 0.987
59 | CGGTTGAGTC | 1.04
60 | CGGTTGCGG | 1.01
61 | CGGTTGGTTC | 0.991
62 | CGGTTGTAT | 1
63 | CGTAAAGCAC | 1.29
64 | CGTAAAGCCC | 1.03
65 | CGTAACCAGT | 0.996
66 | CGTAAGGAGC | 0.992
67 | CGTAAGGCAC | 1.04
68 | CGTAAGTGCT | 0.999
69 | CGTAATACGG | 2.59
70 | CGTAATCTCG | 1.12
71 | CGTAATGAG | 0.974
72 | CGTACAAATA | 1.03
73 | CGTACAAGAT | 1.1
74 | CGTACAGGTC | 0.994
75 | CGTACCT | 1.3
76 | CGTACCTAAT | 1.03
77 | CGTACCTGTT | 0.993
78 | CGTACCTTTG | 1.01

Row | Sequence | switch fluorescence ratio
79 | CGTACGGGTC | 1.04
80 | CGTACTCCAG | 0.965
81 | CGTAGCGTTG | 1.04
82 | CGTAGTAGG | 0.993
83 | CGTAGTCCAG | 1
84 | CGTATACGCT | 0.955
85 | CGTATATCCC | 1.09
86 | CGTATATTCT | 1.05
87 | CGTATCTGGT | 0.907
88 | CGTATCTTCT | 0.979
89 | CGTATGGTCA | 1.05
90 | CGTATTACTT | 1.04
91 | CGTATTATAG | 0.997
92 | CGTCAAAGGT | 1
93 | CGTCAAGGTC | 1
94 | CGTCACACCT | 1.19
95 | CGTCACAGGA | 1
96 | CGTCAGAACG | 1.03
97 | CGTCAGCGTA | 0.996
98 | CGTCAGGATA | 0.997
99 | CGTCAGGTCA | 0.979
100 | CGTCATCAAA | 1.04
101 | CGTCCGAACT | 1.21
102 | CGTCCTGGAC | 0.971
103 | CGTCGACGGT | 0.99
104 | CGTCGAGGGG | 1.01

Row | Sequence | switch fluorescence ratio
105 | CGTCGAGTAC | 1.11
106 | CGTCGATTCG | 0.954
107 | CGTCGCGCTC | 1.23
108 | CGTCGGCCAT | 1.04
109 | CGTCGGGCC | 0.992
110 | CGTCGGTTGG | 0.997
111 | CGTCGTCACC | 1.07
112 | CGTCTACGAC | 1.04
113 | CGTCTACTCT | 0.978
114 | CGTCTATGCC | 1
115 | CGTCTATGCT | 1
116 | CGTCTCGGCT | 1
117 | CGTCTGGGCC | 0.991
118 | CGTCTGTGGA | 1.01
119 | CGTCTTAATT | 1.05
120 | CGTCTTCACC | 1
121 | CGTCTTTGG | 1.02
122 | CGTCTTTTTT | 0.977
123 | CGTGA | 1.66
124 | CGTGAAGCGG | 0.965
125 | CGTGACTCCG | 1.2
126 | CGTGACTTTC | 1.04
127 | CGTGAGAGGC | 0.976
128 | CGTGAGCAGA | 1.04
129 | CGTGAGGGAT | 1.01
130 | CGTGAGTAGA | 0.984

Row | Sequence | switch fluorescence ratio
131 | CGTGCCAGGT | 1.1
132 | CGTGCCGTAT | 0.98
133 | CGTGCGGAGA | 1.08
134 | CGTGCGGGCC | 1.05
135 | CGTGCGTTG | 0.984
136 | CGTGCTGAGC | 1
137 | CGTGGATAG | 1.02
138 | CGTGGGGTTA | 0.952
139 | CGTGGTAAAT | 0.998
140 | CGTGGTAGTT | 0.971
141 | CGTGGTTGT | 0.969
142 | CGTGTACGAG | 0.988
143 | CGTGTAGGCC | 0.984
144 | CGTGTCCGTC | 1.03
145 | CGTGTGCCGG | 0.971
146 | CGTGTGTAAT | 0.978
147 | CGTGTGTCGT | 0.972
148 | CGTGTGTTAA | 1.06
149 | CGTGTTACTT | 1.03
150 | CGTGTTCTTG | 0.993
151 | CGTTAACCTC | 1.05
152 | CGTTAACGGA | 1.04
153 | CGTTAAGTGC | 1.08
154 | CGTTACAAGA | 1.02
155 | CGTTACGAAG | 1.02
156 | CGTTACGGAG | 0.977

Row | Sequence | switch fluorescence ratio
157 | CGTTACTATC | 1.04
158 | CGTTACTATG | 0.998
159 | CGTTAGACCT | 1.1
160 | CGTTAGGCGA | 0.994
161 | CGTTAGGGCT | 0.991
162 | CGTTAGGTTC | 1.02
163 | CGTTAGTTGG | 0.987
164 | CGTTATCTG | 0.947
165 | CGTTATGAGT | 1.01
166 | CGTTATTACG | 0.965
167 | CGTTCAAATA | 0.985
168 | CGTTCAGATG | 1.05
169 | CGTTCAGGG | 1.06
170 | CGTTCATAGC | 1.05
171 | CGTTCCTGGT | 1.01
172 | CGTTCGAGCG | 1.01
173 | CGTTCGGGAT | 1.02
174 | CGTTCGTTGC | 1.17
175 | CGTTCTGTTG | 1
176 | CGTTCTTCTT | 0.989
177 | CGTTGAGAGT | 1
178 | CGTTGCAGGC | 0.949
179 | CGTTGCCGAA | 1.03
180 | CGTTGCCGT | 0.942
181 | CGTTGGCAGA | 1.04
182 | CGTTGGTGCC | 1.01

Row | Sequence | switch fluorescence ratio
183 | CGTTGGTTTA | 0.996
184 | CGTTGTACT | 1.05
185 | CGTTGTGGCT | 1.09
186 | CGTTGTGGTC | 1.01
187 | CGTTTAAATA | 1.01
188 | CGTTTAATAG | 1.06
189 | CGTTTACCCC | 1.02
190 | CGTTTCCTGT | 0.928
191 | CGTTTCGGGA | 0.993
192 | CGTTTCTGAG | 0.927
193 | CGTTTCTTAT | 0.954
194 | CGTTTGAAGA | 0.97
195 | CGTTTGAGC | 0.945
196 | CGTTTGAGCC | 0.992
197 | CGTTTGAGTC | 1.03
198 | CGTTTGGAAA | 0.975
199 | CGTTTGGCCT | 1.06
200 | CGTTTTACGG | 0.974
201 | CTAAAAAATA | 0.997
